Data taken from PubChem BioAssay (NCI).
Several values for one entry are separate records, joined by “and”; a condition that tells them apart may be missing. Identical values can stand only once.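 48-hour exposure; five concentrations; linearly interpolated endpoints. Here, GI50 denotes the concentration required for 50% inhibition of growth. TGI marks complete inhibition of growth.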

System: NCI-H322M lung
Test: DTP human tumour cell line panel, 48 h

Q: Which TGI does the source give for `Cc1ccc(Cc2n[nH]c(=O)[nH]2)cc1` here?
A: > 100 µM

Q: Which GI50 does the source give for `CC1(C)COC(c2ccc(C(F)(F)F)cc2C(O)c2ccc3ccccc3c2)=N1` (stereo not given) here?
A: > 100 µM

Q: What about the TGI of the same compound?
A: > 100 µM

Q: For `S=c1nc2sc3c(c2c(Nc2ccc(Cl)cc2)[nH]1)CCCC3`, which TGI is on record?
A: > 100 µM

Q: With `CCOC(=O)c1ncn2c1[nH]c(=S)c1ccccc12` as the compound, how does the TGI read?
A: > 100 µM

Q: `O=C(Nc1ccccc1)OCCN=C1c2ccccc2C(Br)C(Br)c2ccccc21` (stereo not given) was tested. Which TGI did it give?
A: 24.6 µM

Q: With `CC(=O)OC(C)C(=O)C1c2cccc(O)c2C(=O)c2c(O)cc(C)cc21` (stereo not given) as the compound, how does the TGI read?
A: 1.47 µM

Q: For `O=c1ccn([C@@H]2C[C@H]2CO)c(=O)[nH]1`, which TGI is on record?
A: > 100 µM

Q: With `NC(=O)c1ccc(C(=O)Nc2ccc([As](=O)(O)O)cc2)cc1` as the compound, how does the TGI read?
A: > 100 µM

Q: `c1cc2c(cc1NC1=NCCO1)CCC2` was tested. Which TGI did it give?
A: > 10 µM

Q: With `O=C(OCc1ccccc1)N(CCCCN(CCCNC(=O)C(F)(F)F)C(=O)OCc1ccccc1)CCCNC(=O)C(F)(F)F` as the compound, how does the TGI read?
A: > 100 µM

Q: With `O=[S@@]1Nc2ccc(Br)cc2S1` as the compound, how does the TGI read?
A: > 100 µM

Q: Which TGI does the source give for `N#Cc1cccc2c1Sc1ccccc1N2` here?
A: > 100 µM

Q: `CC[C@@]12CCCN3CC[C@]4(c5cccc(OC)c5N(C(C)=O)[C@@H]4CC1)[C@H]32` was tested. Which TGI did it give?
A: > 100 µM

Q: Which results are given for `CC1=C(C(=O)Nc2ccc(F)c(Cl)c2)C(c2ccc(Cl)cc2)NC(=O)N1` (stereo not given)?
A: GI50: 19.9 µM; TGI: 43.5 µM

Q: What does the source list for `COc1cc(C(=O)/C=C/c2sc(Cl)nc2Cl)cc(OC)c1OC`?
A: GI50: 1.76 µM; TGI: 3.98 µM

Q: For `CC1=C(C#N)C23C(=O)c4ccccc4C(O)=C2C(=O)C=CC3(O)N1Cc1ccccc1` (stereo not given), which GI50 is on record?
A: 49.2 µM

Q: And the TGI?
A: > 100 µM

Q: Which TGI does the source give for `Cc1c(-c2ccc(O)cc2)n(CCCCCCNCCOC(=O)NCCCc2ccc(N(CCCl)CCCl)cc2)c2ccc(O)cc12` here?
A: 5.02 µM

Q: What does the source list for `COc1ccc(-c2cc(-c3ccc(Nc4nc(Nc5ccccc5)nc(Nc5ccc(Cl)cc5)n4)cc3)nc(N)c2C#N)cc1`?
A: GI50: 2.26 µM; TGI: > 50 µM

Q: `O[C@H]1[C@H]2c3cc4c(cc3CN3CCC(=C[C@@H]1O)[C@H]23)OCO4` was tested. Which TGI did it give?
A: 9.52 µM

Q: For `NC(N)=N/N=C/c1c(-c2ccc(Cl)c([N+](=O)[O-])c2)nc2sc(Cl)cn12`, which TGI is on record?
A: 7.36 µM

Q: For `CCOC(=O)C(Sc1ccccc1)c1c(OC)cc(=O)oc1/C=[N+](/[O-])c1ccc(N(C)C)cc1` (stereo not given), which TGI is on record?
A: > 100 µM

Q: `NC(CCCCCCCCCCP(=O)(O)O)C(=O)O` (stereo not given) was tested. Which TGI did it give?
A: > 100 µM

Q: With `CC1=C(C(=O)OCCO[N+](=O)[O-])C(c2cccc([N+](=O)[O-])c2)C(C(=O)OC(C)C)=C(C)N1` (stereo not given) as the compound, how does the TGI read?
A: 54.4 µM

Q: Which TGI does the source give for `COc1ccc(-n2/c(=N/C(=S)N(C)C)ss/c2=N\C(=S)N(C)C)cc1` here?
A: > 100 µM

Q: Which GI50 does the source give for `O=C1NNC(=O)c2ccccc2SSc2ccccc2C(=O)NNC(=O)c2ccccc2SSc2ccccc21` here?
A: 15 µM

Q: What about the TGI of the same compound?
A: 50 µM and > 100 µM

Q: `CCNC1C2(CCCCC2)NC(=O)C12CCCCC2` (stereo not given) was tested. Which TGI did it give?
A: > 100 µM

Q: For `c1ccc(C(C2=Nc3cccc4cccc(c34)N2)c2ccccc2)cc1`, which TGI is on record?
A: 76.8 µM

Q: For `CC1OC(OC2C(OC(=O)[C@]34CCC(C)(C)C[C@H]3C3=CC[C@@H]5[C@@]6(C)CC[C@H](OC7OC(C(=O)O)C(O)C(O)C7O)C(C)(C)[C@@H]6CC[C@@]5(C)[C@]3(C)C[C@H]4O)OCC(O)C2O)C(O)C(O)C1OC1OCC(OC2OCC(O)C(O)C2O)C(O)C1O` (stereo not given in full), which TGI is on record?
A: 8.06 µM

Q: How did the GI50 turn out when `Cc1cnc(NC(=O)C(Cc2ccccc2)NC(=O)c2ccccc2)s1` (stereo not given) was run?
A: 23.5 µM

Q: What about the TGI of the same compound?
A: 75.1 µM

Q: How did the TGI turn out when `O=C1N(Cl)C(=O)C(c2ccc(Cl)cc2)(c2ccc(Cl)cc2)N1Cl` was run?
A: > 100 µM

Q: How did the GI50 turn out when `Nc1cc2nc3ccccc3sc-2cc1=O` was run?
A: 3.84 µM

Q: And the TGI?
A: 14.9 µM

Q: `CC1=C(C(=O)Nc2ccccc2C)C(c2ccco2)C(C(=O)Nc2ccccc2C)=C(C)N1C` was tested. Which TGI did it give?
A: > 100 µM

Q: How did the TGI turn out when `C[N+](C)(CCCn1ccnc1[N+](=O)[O-])CCCn1ccnc1[N+](=O)[O-]` was run?
A: > 100 µM

Q: `Cc1ccc(-c2n[nH]c(Cc3nc(-c4ccc(C)cc4)n[nH]3)n2)cc1` was tested. Which TGI did it give?
A: > 100 µM

Q: For `O=C1c2cccnc2-c2nc(-c3ccccc3[N+](=O)[O-])cc3c2c1nc1ccccc13`, which GI50 is on record?
A: 15.8 µM

Q: And the TGI?
A: 51.4 µM

Q: For `COc1ccc(-c2cc(=O)c3ccc(O)cc3o2)c(OC)c1OC`, which TGI is on record?
A: > 100 µM

Q: How did the TGI turn out when `NC1CC(=O)c2cscc21` (stereo not given) was run?
A: > 100 µM

Q: Which results are given for `O=C(CN1CCN(c2cc3c(cc2F)c(=O)c(C(=O)N/N=C/c2ccccc2O)cn3C2CC2)CC1)N/N=C\c1ccccc1O`?
A: GI50: 0.363 µM; TGI: > 100 µM

Q: What does the source list for `Oc1ccc(Cl)cc1-c1cc(-c2ccccc2Cl)[nH]n1`?
A: GI50: 21.3 µM; TGI: > 100 µM

Q: Which results are given for `CCOC(=O)Nc1nc2ccc(OCC)cc2s1`?
A: GI50: > 100 µM; TGI: > 100 µM

Q: With `Cc1nc2c(nc1C)C(=O)c1ccccc1C2=O` as the compound, how does the TGI read?
A: 4.89 µM

Q: Which results are given for `CSc1ccccc1C#C/C=C\C#Cc1ccccc1N1CCCC1=O`?
A: GI50: > 39.5 µM; TGI: > 50 µM

Q: With `O=C1c2ccccc2C(=O)c2sc(Nc3cccc(Cl)c3)nc21` as the compound, how does the TGI read?
A: 4.87 µM

Q: `COc1ccc2c(c1)C(=O)/C(=C/c1ccc(OCC(=O)Nc3nccs3)cc1)O2` was tested. Which GI50 did it give?
A: 38.8 µM

Q: What about the TGI of the same compound?
A: > 100 µM

Q: With `CSC1=C(C#N)C(=S)N=C(N)C1C(=O)Nc1ccc(C)cc1` (stereo not given) as the compound, how does the TGI read?
A: > 100 µM

Q: For `CCOC(=O)c1c(SC(=O)c2ccc(C(C)(C)C)cc2)n(-c2ccccc2)c(=S)n(-c2ccccc2)c1=O`, which TGI is on record?
A: > 100 µM

Q: How did the GI50 turn out when `CCCCCCCC(=O)SCC/C=C/[C@@H]1CC(=O)NCc2cccc(n2)C2=N[C@@](C)(CS2)C(=O)N[C@@H](C(C)C)C(=O)N1` was run?
A: 0.797 µM

Q: And the TGI?
A: > 33.3 µM

Q: Which TGI does the source give for `N=C(N)c1ccc(/C=C/c2ccc(C(=N)N)cc2)cc1` here?
A: > 100 µM

Q: Which results are given for `COc1c2ccoc2c(/C=C/C=O)c2oc(-c3ccccc3)cc(=O)c12`?
A: GI50: 9.69 µM; TGI: > 100 µM

Q: With `CSc1ccc(/C=C2\CN(C)C/C(=C\c3ccc(SC)cc3)C2=O)cc1` as the compound, how does the TGI read?
A: > 100 µM

Q: Which GI50 does the source give for `Cc1cc2nc(C(Cl)Cl)nc(-c3ccc(Cl)cc3)n2n1` here?
A: 0.603 µM

Q: And the TGI?
A: 2.44 µM

Q: For `O=C(CCl)N1c2ccccc2Oc2ccc3ccccc3c21`, which GI50 is on record?
A: 4.89 µM

Q: What about the TGI of the same compound?
A: 10.9 µM

Q: For `COc1cc(-c2ccc(Br)[nH]2)[nH]c1C=NCC(C)C`, which TGI is on record?
A: 15.7 µM

Q: Which GI50 does the source give for `Cn1ccnc1C(=O)/C=C/c1ccc(CC(=O)Nc2ccc(Br)cc2)cc1` here?
A: 2.21 µM

Q: And the TGI?
A: 5.45 µM

Q: How did the GI50 turn out when `CCc1ccc2c(c1)C(=O)c1c-2n(CCCBr)c(=O)c2cc([N+](=O)[O-])ccc12` was run?
A: > 50 µM

Q: And the TGI?
A: > 50 µM

Q: For `Cc1ccc(N=N/C(=N/NC(=O)c2cc(Cl)ccc2O)c2ccc(N(CCC#N)CCC#N)cc2C)cc1`, which TGI is on record?
A: > 100 µM

Q: For `CC(=O)C(CN(C(C)C)C(C)C)C(c1ccccc1)c1c(O)c2ccccc2oc1=O` (stereo not given), which TGI is on record?
A: > 100 µM

Q: Which TGI does the source give for `COc1ccc(N2CN3OC(=O)N(c4ccc(OC)cc4)[C@@]3(c3ccccc3)C2)cc1` here?
A: > 100 µM

Q: For `Cc1ccc(Nc2nc(=O)c3c4ccccc4n(C(=O)OC(C)(C)C)c3s2)cc1`, which TGI is on record?
A: > 100 µM

Q: For `C=C1C(=O)[C@@]23CC[C@H]4[C@@](C)(CCC[C@@]4(C)C(=O)OC)[C@@H]2CC[C@]1(O)C3`, which GI50 is on record?
A: 12.7 µM

Q: What about the TGI of the same compound?
A: 26.3 µM and 3.23 µM

Q: `O=C1C2=C(SCCS2)C(=O)c2ccccc21` was tested. Which TGI did it give?
A: 3.17 µM

Q: With `CCCCS(=O)(=O)CCC(N)P(=O)(O)O` (stereo not given) as the compound, how does the TGI read?
A: > 100 µM

Q: Which TGI does the source give for `O=[N+]([O-])C(=C(Cl)Cl)C(Cl)=C(Cl)Cl` here?
A: 10.5 µM

Q: How did the TGI turn out when `N#CC(C#N)=C1C(=Cc2ccc(OCCCCCCCCCCSSCCCCCCCCCCOc3ccc(C=C4C(=C(C#N)C#N)c5ccccc5C4=C(C#N)C#N)cc3)cc2)C(=C(C#N)C#N)c2ccccc21` was run?
A: 35.3 µM

Q: With `Cn1c2ccc([N+](=O)[O-])cc2c(=O)n1Cc1ccccc1F` as the compound, how does the TGI read?
A: > 100 µM

Q: How did the TGI turn out when `FC(F)(F)c1ccc(C2SCc3nc4ccccc4n32)cc1` (stereo not given) was run?
A: > 100 µM

Q: What does the source list for `CCOc1ccccc1-n1c(CN2CCN(C(=O)COc3ccc(CNCCCCCCN4C5CCCC4CC(OC(=O)Nc4cc(C)ccc4OC)C5)cc3)CC2)nc2ccccc2c1=O` (stereo not given)?
A: GI50: 1.73 µM; TGI: 3.46 µM

Q: With `CC(=O)N1[C@H](C(=O)O)CS[C@H]1c1ccncc1` as the compound, how does the TGI read?
A: > 100 µM
